Assay results: the BET-seq Pho4 binding data (Le et al. 2018)
Some of the results follow. The energies were worked out here from pooled read counts, against the library average; single values are noisy.

molecular target: T1, Pho4 (S. cerevisiae) (UniProt P07270); test: relative binding free energy (BET-seq); higher = weaker binding; conditions: reference: library average
T1 sequence: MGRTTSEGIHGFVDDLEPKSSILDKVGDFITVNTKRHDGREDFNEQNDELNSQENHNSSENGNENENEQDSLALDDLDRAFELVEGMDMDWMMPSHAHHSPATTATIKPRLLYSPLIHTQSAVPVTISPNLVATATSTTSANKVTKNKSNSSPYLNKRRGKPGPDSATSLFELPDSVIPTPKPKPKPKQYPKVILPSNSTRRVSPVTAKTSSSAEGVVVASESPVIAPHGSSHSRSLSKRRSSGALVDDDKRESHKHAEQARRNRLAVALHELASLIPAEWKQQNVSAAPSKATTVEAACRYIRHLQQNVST

Relative binding free energy, -0.711 kJ/mol:
ATCGACACGTGGGGGC
TCGTGCACGTGGGTAA
AAGGGCACGTGGGATC
GGAGGCACGTGTATGA

Relative binding free energy, 0.251 kJ/mol:
CGATGCACGTGTGGAT
ATTAGCACGTGATTGA

Relative binding free energy, 0.962 kJ/mol:
GTTGTCACGTGACCGG
AGTAACACGTGAGGTT

Relative binding free energy, 0.669 kJ/mol:
TTTTGCACGTGTGGAC
CGTGTCACGTGTGAGG
TCTTTCACGTGGATTA
ACGGGCACGTGAGTGT
TGGTTCACGTGTATTA
GTGTACACGTGTAGCG
CATCTCACGTGGGTGT

Relative binding free energy, -1.21 kJ/mol:
GTCCGCACGTGGGGGT

Relative binding free energy, -0.377 kJ/mol:
TGAGGCACGTGTATAT
CTAGTCACGTGTTGTG
GGTTGCACGTGTATCT
GATGCCACGTGGGTTA

Relative binding free energy, -0.502 kJ/mol:
TGAACCACGTGGGGCG
ATGAGCACGTGGTGGC

Relative binding free energy, 1.17 kJ/mol:
CTGTTCACGTGGAGAG

Relative binding free energy, 0.377 kJ/mol:
AGCGGCACGTGAGTTG
TTGTGCACGTGATAGC
TGGCACACGTGTGATG
TGCGGCACGTGAGTGG
ATCGTCACGTGGCGGA
GGTAGCACGTGGATTC

Relative binding free energy, -0.795 kJ/mol:
GAGGGCACGTGGGTGG
GCTGGCACGTGGCGGA

Relative binding free energy, 1.51 kJ/mol:
TGAGTCACGTGAGGAG

Relative binding free energy, 1.34 kJ/mol:
TTTCTCACGTGTTTGC
TTATTCACGTGAAAAG

Relative binding free energy, 0.837 kJ/mol:
GATATCACGTGTGGGA
TGAGTCACGTGATTGG
TATTTCACGTGGATTA
TAATGCACGTGAAATT
GGATTCACGTGTAGGT

Relative binding free energy, 0.0837 kJ/mol:
GGTAACACGTGCGTTT
TGGGACACGTGGGTAA
GCTTGCACGTGCAGTG
TGGCACACGTGTGTTT
GTAGCCACGTGTGGTA

Relative binding free energy, 0.753 kJ/mol:
TATTTCACGTGATTGA
GTGGTCACGTGTGATT
GATAGCACGTGTGCGA
TCGTTCACGTGGGGGT
CTGTACACGTGTGTTC
CTGGTCACGTGGCGAT

Relative binding free energy, 0.628 kJ/mol:
TAGGACACGTGTGCTG
CTTTACACGTGCGCGT
TTATACACGTGTTTAT
TATGTCACGTGTAATG
CGTTGCACGTGAATGG

Relative binding free energy, -0.669 kJ/mol:
TTAGGCACGTGGATGG
TGGCCCACGTGGTATT

Relative binding free energy, -0.0418 kJ/mol:
CTGGGCACGTGTGGCA
TTGATCACGTGGTGCA
TGTGTCACGTGGAGGC
TGTAACACGTGGTTGG
GGTGTCACGTGGTAAG
GGGCGCACGTGTGTCT

Relative binding free energy, 1.05 kJ/mol:
ATATTCACGTGGAGTA
AAGGTCACGTGGGATT
CACTTCACGTGGTGGG
GTGCTCACGTGCGGTG

Relative binding free energy, 1.26 kJ/mol:
AGGGTCACGTGAAGGT
GGTTCCACGTGTAATT
TGGTTCACGTGAATAT
GTTTTCACGTGGAGCG
AATTTCACGTGCGGCT

Relative binding free energy, 1.59 kJ/mol:
AGGGTCACGTGAATAG

Relative binding free energy, -1.09 kJ/mol:
CGAGGCACGTGGGTCA
CATGGCACGTGGTTTT

Relative binding free energy, 0.586 kJ/mol:
CTTATCACGTGTAAGT
ATGCACACGTGTTATG
GGTTCCACGTGTGTCT

Relative binding free energy, 0.46 kJ/mol:
AGCTTCACGTGTGCGT
GGGTCCACGTGGAGTT
GTGTACACGTGTTAAG
GTGATCACGTGGGAGT

Relative binding free energy, -0.753 kJ/mol:
CTTAGCACGTGGTGAT

Relative binding free energy, -0.544 kJ/mol:
GGAGGCACGTGGAACG

Relative binding free energy, 0.418 kJ/mol:
ATTTACACGTGGTATC
GTTCGCACGTGTTGGG
GCGGTCACGTGTTTAG
AGTTTCACGTGCGGCG
ACATTCACGTGGGGTA

Relative binding free energy, 0.544 kJ/mol:
CTGTTCACGTGGTGAA
TGCTACACGTGGATGG
ATATTCACGTGCTGGT
GGCGTCACGTGTGGCA
TAGATCACGTGGGAAG
TTAATCACGTGGGTAA
TTAATCACGTGCGTGA
TTAGTCACGTGTATTT

Relative binding free energy, 1 kJ/mol:
ATGATCACGTGACGTT
TAGTTCACGTGGATAT
ATGTTCACGTGCAAGT
ACGTTCACGTGTGGCG
TGTTTCACGTGGGATG
TCCGTCACGTGAGGGT

Relative binding free energy, -0.167 kJ/mol:
TTGGTCACGTGGTCAA
AGGGTCACGTGGTGCG
GGTGGCACGTGGATTG

Relative binding free energy, 0.502 kJ/mol:
TGGGACACGTGATGAG
ATGTCCACGTGGAAGG
GGGAACACGTGGAGGC
CGCTTCACGTGGTTGG
GGGTGCACGTGTGTTA

Relative binding free energy, -0.293 kJ/mol:
AGTGTCACGTGGTGTT
CGGGGCACGTGGTGCC
CTGAGCACGTGTGTGT

Relative binding free energy, -0.335 kJ/mol:
TGTTCCACGTGGTAGT
AACGGCACGTGTTGGT
GTGTACACGTGGGTCT
TAGATCACGTGGGAAT
TCTAGCACGTGTCGGT
TTTTGCACGTGGCTGG
ACTGGCACGTGTGTCT

Relative binding free energy, 1.09 kJ/mol:
TGTGACACGTGAAACG
ATTCTCACGTGTGAGG
GTTGGCACGTGAAAGG

Relative binding free energy, -0.251 kJ/mol:
ATTTGCACGTGCTATT
TGTGGCACGTGGTAGG
TAGCGCACGTGTTAGG
ATGATCACGTGGGTGA
AGGGTCACGTGCCGGG

Relative binding free energy, -1.05 kJ/mol:
ACGGGCACGTGGGGGT
GGCGCCACGTGGGCGG

Relative binding free energy, -0.628 kJ/mol:
TGTTGCACGTGCCAGT

Relative binding free energy, 1.67 kJ/mol:
GGGTTCACGTGGACGG
TATTTCACGTGTTGGC

Relative binding free energy, -0.0837 kJ/mol:
TTTGTCACGTGCGTTA
CATTGCACGTGTTGGT
AAATACACGTGGGGGT
ATTGGCACGTGACTTT
GTGCACACGTGTCGGG
GTTGGCACGTGACCTG
ATGAGCACGTGGATTA
TGAGGCACGTGTATTG

Relative binding free energy, 0.126 kJ/mol:
CAGACCACGTGTGGGG
AACTGCACGTGTGGGA
GTGGACACGTGTTCGG
AGTGTCACGTGCGTTT

Relative binding free energy, 0.879 kJ/mol:
TTTCTCACGTGCTAGG
CGTGTCACGTGATTCT
GGCTCCACGTGGTTTG
CATTTCACGTGTGTTG
CTTCTCACGTGTATGT

Relative binding free energy, 0.92 kJ/mol:
ATTTACACGTGCTGGA
AATTACACGTGTGGCG
ACGATCACGTGTGGAG

Relative binding free energy, 1.21 kJ/mol:
AAGATCACGTGTTGGC
TTATTCACGTGAGTGC
TATATCACGTGAGGTT

Relative binding free energy, -0.126 kJ/mol:
TGACGCACGTGTAGTT
TGATACACGTGGTTTC
AGGCACACGTGGGATG
TTTAACACGTGCGTTG

Relative binding free energy, 1.46 kJ/mol:
AGCTTCACGTGTACGG
GAGTTCACGTGGCGGG
TATCTCACGTGAGGGG

Relative binding free energy, 1.63 kJ/mol:
ACGTTCACGTGAGGGC

Relative binding free energy, 0.167 kJ/mol:
TGGCGCACGTGATGGC
TTGGACACGTGGGAAT
AGGTCCACGTGTCGGG
TCTTGCACGTGTTTTC
AGGCTCACGTGGAGTG

Relative binding free energy, -0.92 kJ/mol:
AGAAGCACGTGGCGGG

Relative binding free energy, 1.55 kJ/mol:
CAATTCACGTGCGGTT
TTCTTCACGTGTTTTT

Relative binding free energy, 0.209 kJ/mol:
TAGTGCACGTGTGGGA
CTGTACACGTGTTGGA
ATGGGCACGTGTCCAG
ATTAGCACGTGATGGT
ATTAACACGTGGAATT
CTTGTCACGTGCGGCG

Relative binding free energy, -0.962 kJ/mol:
CGGGGCACGTGGTGGC
AGGAGCACGTGGTGTT

Relative binding free energy, 1.3 kJ/mol:
ATTTGCACGTGAAAGA
GAAGTCACGTGAAGGG
GTGCTCACGTGTCAGG

Relative binding free energy, -0.837 kJ/mol:
GTATGCACGTGGGCGA
CACGGCACGTGCGGGG

Relative binding free energy, -0.209 kJ/mol:
AGCTACACGTGGTGTT
AATGGCACGTGTGACT
ACTTGCACGTGGGGGA

Relative binding free energy, 0.0418 kJ/mol:
GGCTGCACGTGCGTTG
ATGCACACGTGTAGTT
GGTGCCACGTGTTGTG
GTTCCCACGTGTGTGT
TAGCACACGTGGTCGG
GTGGACACGTGGATTG
TATTGCACGTGTGAGC
TGCTTCACGTGTATTA
GGTGACACGTGGTCGT
TGATGCACGTGCGTTG

Relative binding free energy, -0.879 kJ/mol:
TGTCCCACGTGGGTGA

Relative binding free energy, 0 kJ/mol:
CCTAGCACGTGTGTGT
TAAGTCACGTGCGGTT
GTTGGCACGTGTATGT
GCAGGCACGTGGAAGT
TCAGACACGTGGGGGT
GTACACACGTGGTTTT
GGTGGCACGTGTGACT

Relative binding free energy, 1.42 kJ/mol:
GGCATCACGTGGTGCG
TGTTTCACGTGCAAAA

Relative binding free energy, -0.586 kJ/mol:
TTTGCCACGTGGTGCT
GCTGGCACGTGGGAAT
CTTAGCACGTGGTGCA

Relative binding free energy, 1.8 kJ/mol:
TCGGTCACGTGGAATT

Relative binding free energy, 0.335 kJ/mol:
CGTTACACGTGGTGTC
ATAGACACGTGATTGT
TGTTGCACGTGTCGGG
CGTGACACGTGTAGGT

Relative binding free energy, 0.293 kJ/mol:
AAGTGCACGTGTCAAG
CTTGACACGTGATTTG
ACTGTCACGTGTAGGT
GCCGACACGTGTTGGG
ATAAACACGTGTGATG

Relative binding free energy, 0.795 kJ/mol:
GGACACACGTGTTGTA
TAGTACACGTGAGGCT
TTGGTCACGTGTCCTT
AGTAGCACGTGATCTT
GGTTCCACGTGTTGGC

Relative binding free energy, 1.38 kJ/mol:
GGTTTCACGTGGTTAT
TAGTACACGTGAGGTC
TAATACACGTGAGGCT
